# This is one part of the list.
# Test system: PF3D7_0420300 AP2 domain 1 (GST-tagged)
# Test: gcPBM binding intensity (ln(normalized median fluorescence intensity)); higher = stronger DNA binding
# Outline: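 An Agilent 4 × 180k array carrying primer-extended double-stranded 36-bp intergenic genomic probes and negative controls received GST-tagged P. falciparum DNA-binding domains expressed in E. coli, about 25 μg on average, for 1 h. The binding buffer contained 1× PBS, 1% milk, 0.2 mg/ml BSA, 0.5% salmon testes DNA and 0.03% Triton X-100. Binding intensity is the top Masliner-normalised natural-log median intensity across replicate spots of either probe orientation, read after Alexa488 anti-GST antibody staining and a 488 nm scan.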
row,Sequence,gcPBM binding intensity (ln)
1,ATTTCAAAATATAGCTGTACAAAAAATGTAGATATA [XGTACX_site5843],9.36
2,GATCATTCTAAATATAAACACACATAAATATATACA [CACACA_site9108],9.48
3,ATAATATAATAATATTGTACATGGTCAAATATGAAA [XGTACX_site8390],9.19
4,ATAAAACTTATTTAACGTACATATTTTATATACCTT [XGTACX_site5353],9.37
5,TATAAAATAAATAACAAAAAAAATAAAATAAAAATA [TGCATGCA_negctrl_site297],9.41
6,TTTTTTTTTTAGTATGAACACACATATATATTATAA [CACACA_site8957],9.23
7,AAAAAATACATCAAAAGAAACATATATATATATATA [GTGCAC_negctrl_site719],9.23
8,TATAGCAAAATATTCACACAAACTATTAATAAAAGT [CACACA_site5795],9.55
9,AATGGTTATAATATATGTACATATAAATATACTGAA [XGTACX_site8533],9.26
10,ATATAAGTACCTATAACACACATATATTATAAGTAT [CACACA_site7281],9.6
11,TAGAATAAATTAATTACACACGGAATTATATATATA [CACACA_site1616],9.51
12,TATCATATATTATAGCGTACTTATTTATTTATTTAT [XGTACX_site1676],9.43
13,AAAAAAAAAAAAAAAAGTACATGAAAAAAAGAAGAA [XGTACX_site8384],9.63
14,TATAATAGTTCATAGGTGCAATATAATAAATTTATA [GTGCAC_site9573],9.13
15,TTGTATTAAAATCAAGTGCATATAATTTAAGTTCAT [GTGCAC_site9495],9.04
16,CTTTGGTTATAACACACATGCACACGTAAATAAATA [TGCATGCA_site976],9.55
17,CATCACCTTTTTAAATGTACGCATAATACCAAAAAA [XGTACX_site1587],9.18
18,GTAGGTTACAAAATGTGAGAGAAGCAAATATAGAAA [CACACA_negctrl_site1819],9.31
19,TTTTGTTTTTAGTTTATACACACCATATTAATATAA [CACACA_site3102],9.52
20,CTGTATTTATTTTTCTGTACCAAATCACCCCTTGTA [XGTACX_site395],9.19
21,TATATTTATAAATGAACACACACGCAATTTGAATCG [CACACA_site3370],9.74
22,TACGTTTTATGACACACACACAAAAAAAAAAAAAAA [CACACA_site7764],9.49

row,Sequence,gcPBM binding intensity (ln)
1,GATGTATAAAATAATACATGCATGTCCTACATATAT [TGCATGCA_site155],9.32
2,TTTCTTTTTCGATATACACACTGTATGTGTCTAAAA [CACACA_site6054],9.3
3,TTTCCGGTAATATGGAAATATATGTGGGTTTTTTTT [CACACA_negctrl_site1536],9.37
4,ACTATTTTAAAAATATGTACATACGTTGTAATTTAA [XGTACX_site7999],9.16
5,CGAAGGATAAACATACGTACATATATGTGTATAATA [XGTACX_site779],9.28
6,AATCGAAATCGTGCACGGACACATGCAGTAGCCGAG [XGTACX_site6001],9.23
7,TATACCTATAAATACACACACATATATAAATAAATA [CACACA_site6730],10
8,ATATATATACACAATAGTACGTGTAATATTATTATT [XGTACX_site2151],9.35
9,GAAGTTAGTGTTGACTGTACATATATATGTATATAT [XGTACX_site7243],9.37
10,TTTTCTTTTTGTTCGTGTACACACATGAAATTTATA [XGTACX_site3301],9.51
11,AAACGTACATAATACACACACATGTATACATATAAA [CACACA_site2048],9.89
12,ATATTTTTATATGAGGTGCATATAATGACAATTAAG,9.14
13,TCTTTTTATGTTCTAGAGCATTTTATTATTTAACAT [CACACA_negctrl_site1699],9.32
14,ATACTATTTAAATGGGTGCTAAAAATAACAAAAATT,9.34
15,AATGAAAAGTAAAATACACACACATAATATAATTTA [CACACA_site8608],10
16,TGTGTAAAAATCATGGGTACACATTTTGATACCAAT [XGTACX_site1779],9.34
17,AAACTTGACGAACACACACACACATATATAAAAAAA [CACACA_site6494],10.1
18,TTTTTATAAAAAATTTACACTATATGACAGAAGTAA [XGTACX_negctrl_site481],8.94
19,ATAAATTAAAAACACACACACATCTGGATACCCCTA [CACACA_site5780],10.1
20,GGTGGTAAAAAACCTGCATGTCGAAATATTAAATAC [TGCATGCA_site33],9.25
21,AAAAAAAAAAAAAAGAGTACTCATATAAAAATATAA [XGTACX_site6551],8.97
22,AAGAAGAAACAAAACACACACAGTCTTCTTTTCTAT [CACACA_site3088],9.9

# — the supplement of paper PMC11417369
